Drawing on publication PMC12136788, this text covers binding signal for 22 molecules.

T1: UNK ZnF1-6 (called full-length) (human, UniProt Q9C0B0 30-357)
T1 sequence: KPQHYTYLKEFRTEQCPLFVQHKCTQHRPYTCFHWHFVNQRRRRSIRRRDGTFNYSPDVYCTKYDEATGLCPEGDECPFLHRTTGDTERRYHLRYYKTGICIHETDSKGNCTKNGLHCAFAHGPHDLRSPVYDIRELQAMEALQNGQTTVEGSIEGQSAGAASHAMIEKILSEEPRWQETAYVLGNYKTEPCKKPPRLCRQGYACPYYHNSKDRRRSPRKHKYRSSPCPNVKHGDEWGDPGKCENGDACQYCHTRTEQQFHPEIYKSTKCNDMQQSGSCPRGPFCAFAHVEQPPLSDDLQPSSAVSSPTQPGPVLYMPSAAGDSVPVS

B1: chr17:42842016:42842117:+|3pUTR|ENSG00000131467|msi1|FALSE|unique (ssRNA)
RNA: GGGAGUUCUACAGUCCGACGAUCUUACUGUUUCUUUCCUCUGUGGGGCAUUGGAUCCUCCCACAGUUGCCCUGGUGAUGACUUAGGGCUUCCCAUCUGUGUACAUCCCACUUUGAAUCUUGAUCGUGACAAGAAAUACCUUAGCAACAGAGGAUUGAGCAUCA
B2: chr10:22535117:22535218:-|3pUTR|ENSG00000150867|unk|total|mutant (ssRNA)
RNA: GGGAGUUCUACAGUCCGACGAUCAAGGUACACAUACAUUAUUUGAGUAACUGUUUCCUUGGGGGCCAAUCUGUGUAUGCUUUCCGAAGUUUACAGAAUGCUUUUAUUUUUGUCUAUAACAAACAGUCUGUCAUUUAUUUCUGUCAACAGAGGAUUGAGCAUCA
B3: chr1:93180074:93180188:-|CDS|ENSG00000117500|unk|FALSE|bound_elsewhere (ssRNA)
RNA: GGGAGUUCUACAGUCCGACGAUCCUGGCCGCUCUGCCUCCGGUGCUGCUGCCUGGGGCGGCCGGCUUCACACCUUCCCUCGAUAGCGACUUCACCUUUACCCUUCCCGCCGGCCAGAAGGAGUGCUUCUACCAGCCCAUGCCCCAACAGAGGAUUGAGCAUCA
B4: chr3:149084675:149084859:-|CDS|ENSG00000071794|unk|FALSE|unique (ssRNA)
RNA: GGGAGUUCUACAGUCCGACGAUCCCAACUUUCUUUCCACGUUUUGAAUUCCAAGAUGUUAUCCCUCCAGAUGACUUUCUAACUAGUGAUGAAGAAGUAGAUUCCGUUUUAUUUGGAAGUUUGAGAGGUCAUGUGGUUGGACUACAACAGAGGAUUGAGCAUCA
B5: ENSG00000092929:stop:overlap|stop_codon|ENSG00000092929|stop_codon|NA|stop_codon (ssRNA)
RNA: GGGAGUUCUACAGUCCGACGAUCUGAGGCUGCGGCGGCACCGGGCCAAGCAGGCCUCCCAGCAUGCCUUGCGGCCGGCACCGUAGCCGUAGAGGUUUGCGGUGGGGCUGGGUCCCCGGUGGGGACUUGCAAGGGCUUUCCUGUCAACAGAGGAUUGAGCAUCA
B6: chr3:48467913:48467962:-|3pUTR|ENSG00000164054|msi1_unk|FALSE|overlapping (ssRNA)
RNA: GGGAGUUCUACAGUCCGACGAUCCCCAGACAUGAAUACCUCGUGUUCCUCCUCCCUCUAUUACUGUUUCACCAGAGCUGUCUUAGCUCAAAUCUGUUGUGUUUCUGAGUCUAGGGUCUGUACACUUGUUUAUAAUAAAUGCAACAACAGAGGAUUGAGCAUCA
B7: chr12:122865329:122867115:-|three_prime_utr|ENSG00000139722|control|control|control (ssRNA)
RNA: GGGAGUUCUACAGUCCGACGAUCUGGAGGUCCGCUCUGUGCCAAGGGCUCUGGGGCCCUGGGCCAGCGUGUCUGUCUGAUUUUAGAACUGUAGGUCAGUGGUGAGUAGUAGGAGCCCAGGCUUUGGGCAUCAAGGCAGUUGUGCAACAGAGGAUUGAGCAUCA
B8: ENSG00000166086:stop:overlap|stop_codon|ENSG00000166086|stop_codon|NA|stop_codon (ssRNA)
RNA: GGGAGUUCUACAGUCCGACGAUCUCCUGCUGCUGCUUUUCAGGGAGUCAAGUCUAGUCUGCUUUCCAAGGCUGCAUUCUAAGUAGUGAAGCCUCAACUUCAUAUUUACCUAAAGCAGGACACCACACUCUUCCCCUGGCAGCCCAACAGAGGAUUGAGCAUCA
B9: chr2:128192036:128192329:+|3pUTR|ENSG00000136731|msi1|FALSE|unique (ssRNA)
RNA: GGGAGUUCUACAGUCCGACGAUCAUGUCCUGGUGUCACUCAUUGCCUCUUAUCUGUCGCCAUUCUAAUAUAAGUCAGCUUAAUAGUUGACUCUGAAUAAUGCAAAACCCAGCUUGCUUCCAGAAUGGCCUAGGACCCUCCUCCCAACAGAGGAUUGAGCAUCA
B10: chr4:186619803:186619904:-|CDS|ENSG00000083857|msi1|FALSE|unique (ssRNA)
RNA: GGGAGUUCUACAGUCCGACGAUCAGACGGAGACCCUUUCAGCCAGUUCACUAUUAACUUCAAUACUGGAGUUAUCAAUGUCAUAGCUCCUCUGGACUUUGAGGCCCACCCGGCAUAUAAGCUGAGCAUACGCGCAACUGACUCCAACAGAGGAUUGAGCAUCA
B11: ENSG00000092201:stop:overlap|stop_codon|ENSG00000092201|stop_codon|NA|stop_codon (ssRNA)
RNA: GGGAGUUCUACAGUCCGACGAUCUUCCCCGCGUGCCAGCCUUGGUCAUGCAUAGCAGCACCUCUCGCAGUCUCUUCCCGCCCUAGAAGAGGCAACAUCCUUCCCUCCUACUCCGUGGUCACGUCUUGCUGCCCUCCCCUGCCGCAACAGAGGAUUGAGCAUCA
B12: ENSG00000077092:stop:overlap|stop_codon|ENSG00000077092|stop_codon|NA|stop_codon (ssRNA)
RNA: GGGAGUUCUACAGUCCGACGAUCUGCUGAAGGCCGCCUGCCUGGACAUCCUGACCGCCAGGACCUUGAGGAACCGACAAAAGUAGAUAAGCUACAAGAACCAUUGCUGGAAGCACUAAAAAUUUAUAUCAGAAAAAGACGACCCAACAGAGGAUUGAGCAUCA
B13: chr12:68839811:68839877:+|CDS_3pUTR|ENSG00000135679|msi1_unk|FALSE|overlapping (ssRNA)
RNA: GGGAGUUCUACAGUCCGACGAUCAUAAGCCCUGCCCAGUAUGUAGACAACCAAUUCAAAUGAUUGUGCUAACUUAUUUCCCCUAGUUGACCUGUCUAUAAGAGAAUUAUAUAUUUCUAACUAUAUAACCCUAGGAAUUUAGACCAACAGAGGAUUGAGCAUCA
B14: chr10:122937732:122937852:-|CDS|ENSG00000119965|unk|FALSE|unique (ssRNA)
RNA: GGGAGUUCUACAGUCCGACGAUCGUAAGUGACAACUCAAAUAUACCCAACUCCGAGUUGCUGCCUUUUCUCCAGAAUUUAUGUAGUCAAGUUAAUCAUCUCCAUGUGGGAAAUAAGACCGAGUGUCAGGAAAACAUCACCAAGCAACAGAGGAUUGAGCAUCA
B15: ENSG00000198589:be:win_2151|CDS|ENSG00000198589|bound_else_gene|NA|bound_elsewhere_windowed (ssRNA)
RNA: GGGAGUUCUACAGUCCGACGAUCAAGGAAUGGGUUACGUGUUAUCUACAAACUUCUGGCAUCGAAAAGUGAAGGAAUCAGGGUACAAGCUCUUAAGGCAAUGGGUUAUUUUUUAAAACAUCUGGCCCCAAAGAGGAAAGCAGACAACAGAGGAUUGAGCAUCA
B16: chr3:69085097:69085224:+|CDS|ENSG00000144746|unk|total|mutant (ssRNA)
RNA: GGGAGUUCUACAGUCCGACGAUCGGGUUCCGAUCGCUUUGCCCGGCCGGACUUCAGGGACAUUUCCAAAUGGAACAACCGCGCCGUGAGCAACCUGCUCUAUUACCAGACCAACUACCUGGUGGUGGCUGCCAUGAUGAUUUCCAACAGAGGAUUGAGCAUCA
B17: ENSG00000198589:be:win_51|CDS|ENSG00000198589|bound_else_gene|NA|bound_elsewhere_windowed (ssRNA)
RNA: GGGAGUUCUACAGUCCGACGAUCCGGGGGAGGUGGAGGGAGAGAAGAAACCCCUACUGAAGGGGGUGCAUUGUCUCUGAAACCAGGGCUCCCCAUCAGGGGCAUCAGAAUGAAAUUUGCCGUGUUGACCGGUUUGGUUGAAGUCAACAGAGGAUUGAGCAUCA
B18: ENSG00000186448:stop:overlap|stop_codon|ENSG00000186448|stop_codon|NA|stop_codon (ssRNA)
RNA: GGGAGUUCUACAGUCCGACGAUCUUGAGGAAUUCUCUUGGCUACAAAACACCAAUGAGUCCAAGAUUGAGAUUCAGAAAAUCUAGUGUCAUAUGUAAAAUGGAAUAGAAUCCCUGCCUACUUAAGUAACUGUUGGACAAAUGACAACAGAGGAUUGAGCAUCA
B19: chr11:5233990:5234213:-|CDS|ENSG00000223609|control|control|control (ssRNA)
RNA: GGGAGUUCUACAGUCCGACGAUCGAUGCUGUUAUGGGCAACCCUAAGGUGAAGGCUCAUGGCAAGAAGGUGCUAGGUGCCUUUAGUGAUGGCCUGGCUCACCUGGACAACCUCAAGGGCACUUUUUCUCAGCUGAGUGAGCUGCAACAGAGGAUUGAGCAUCA
B20: chr9:34086386:34088349:-|three_prime_utr|ENSG00000198876|control|control|control (ssRNA)
RNA: GGGAGUUCUACAGUCCGACGAUCCUCAGUUUCCUUGUUUCUUUUGAUUUUUUUUUUCCUAAUUGUGUGAGGCUCUUGUGUUUUAGUGGGAACACCAAAGUUUGCCUAUAGUUUAGGCACUUAAUAGGAAGAAGCUCUGUACAGCAACAGAGGAUUGAGCAUCA
B21: chr2:162011792:162011987:-|CDS|ENSG00000197635|control|control|control (ssRNA)
RNA: GGGAGUUCUACAGUCCGACGAUCACUGUCUUCAGACUGAACUGGGCCACUUACCUUGCAAGCACAGAAAACAUUAUAGUAGCUAGCUUUGAUGGCAGAGGAAGUGGUUACCAAGGAGAUAAGAUCAUGCAUGCAAUCAACAGACAACAGAGGAUUGAGCAUCA
B22: chr15:85746268:85746369:+|3pUTR|ENSG00000170776|msi1|FALSE|bound_elsewhere (ssRNA)
RNA: GGGAGUUCUACAGUCCGACGAUCUGUUUUAUUUAUUGUAUUUGUGUGUUUGUGUUUGUUUUUUUUUAAGGGUGAGCCAGGUCUAGCCCAACAGUCUAAACUAUCCAGUCAAUACCGAGUGAAGUGGCAGCCAGCACUGUUCACCAACAGAGGAUUGAGCAUCA

Some of the results follow.

In the assay the target is T1, UNK ZnF1-6 (called full-length). Briefly: nsRBNS (natural sequence RNA bind-n-seq); RBNS binding buffer (assumed for nsRBNS): 25 mM Tris pH 7.5, 150 mM KCl, 3 mM MgCl2, 0.01% Triton X-100, 500 ug/ml BSA, 20 U/ml SUPERase-In, 4 C; UNK is unkempt and MSI1 is Musashi-1; names of the RNAs are library labels; protein concentration not given here; high values mean tight binding.
B1 had a binding signal of 0.557 enrichment R. Molecule B2 had a binding signal of 0.482 enrichment R.

As for B3, the binding signal was 1.1 enrichment R. B4 returned a binding signal of 1 enrichment R.

Molecule B5 gave a binding signal of 0.698 enrichment R.

As to B6, the binding signal turned out to be 0.571 enrichment R. In the case of B7 it was 1.28 enrichment R; in that of B8, 0.638 enrichment R; in that of B9, 0.601 enrichment R. In the case of B10 it was 0.531 enrichment R; in that of B11, 0.859 enrichment R.

B12 registered a binding signal of 0.881 enrichment R. In the case of B13 it was 1.75 enrichment R; in that of B14, 0.553 enrichment R.

In turn, B15 had a binding signal of 0.693 enrichment R. As for B16, the figure is 0.471 enrichment R. As for B17, the figure is 0.759 enrichment R; as for B18, 0.754 enrichment R.

On to B19, for which the binding signal came to 0.653 enrichment R. B20 displayed a binding signal of 0.955 enrichment R. As for B21, the figure is 0.583 enrichment R. B22 came in with a binding signal of 1.34 enrichment R.
